# Data as given in the supplement of paper PMC3334620.
# The full ranking holds about 33,000 sequences; the median of “E-score (-0.5 to 0.5)” is about -0.053, and the highest 2% start at about 0.37. The list shows a part of the results.
# Biological target: Hap1 (UniProt P0CE41)
# Assay: PBM E-score (8-mer binding enrichment) (E-score (-0.5 to 0.5)); higher = stronger / more preferred TF binding; most listed sequences are background and not binding sites
# Conditions: protein concentration: 200 nM; construct: GST-DNA-binding domain
# Experimental: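 Universal 'all 10-mer' protein binding microarrays (Agilent AMADID 015681) probed with GST-tagged S. cerevisiae TFs (full-length or DBD) made by in vitro transcription/translation (PURExpress), about 100-200 nM. Bound TF was detected with fluorescent anti-GST. Each ungapped 8-mer (which stands for itself and its reverse complement) is scored by the PBM enrichment score (E-score), a modified Wilcoxon-Mann-Whitney statistic from -0.5 to +0.5, computed with the Universal PBM Analysis Suite. Scale: above 0.35 generally sequence-specific binding.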
# Sequence of UniProt P0CE41 (P0CE41 whole entry): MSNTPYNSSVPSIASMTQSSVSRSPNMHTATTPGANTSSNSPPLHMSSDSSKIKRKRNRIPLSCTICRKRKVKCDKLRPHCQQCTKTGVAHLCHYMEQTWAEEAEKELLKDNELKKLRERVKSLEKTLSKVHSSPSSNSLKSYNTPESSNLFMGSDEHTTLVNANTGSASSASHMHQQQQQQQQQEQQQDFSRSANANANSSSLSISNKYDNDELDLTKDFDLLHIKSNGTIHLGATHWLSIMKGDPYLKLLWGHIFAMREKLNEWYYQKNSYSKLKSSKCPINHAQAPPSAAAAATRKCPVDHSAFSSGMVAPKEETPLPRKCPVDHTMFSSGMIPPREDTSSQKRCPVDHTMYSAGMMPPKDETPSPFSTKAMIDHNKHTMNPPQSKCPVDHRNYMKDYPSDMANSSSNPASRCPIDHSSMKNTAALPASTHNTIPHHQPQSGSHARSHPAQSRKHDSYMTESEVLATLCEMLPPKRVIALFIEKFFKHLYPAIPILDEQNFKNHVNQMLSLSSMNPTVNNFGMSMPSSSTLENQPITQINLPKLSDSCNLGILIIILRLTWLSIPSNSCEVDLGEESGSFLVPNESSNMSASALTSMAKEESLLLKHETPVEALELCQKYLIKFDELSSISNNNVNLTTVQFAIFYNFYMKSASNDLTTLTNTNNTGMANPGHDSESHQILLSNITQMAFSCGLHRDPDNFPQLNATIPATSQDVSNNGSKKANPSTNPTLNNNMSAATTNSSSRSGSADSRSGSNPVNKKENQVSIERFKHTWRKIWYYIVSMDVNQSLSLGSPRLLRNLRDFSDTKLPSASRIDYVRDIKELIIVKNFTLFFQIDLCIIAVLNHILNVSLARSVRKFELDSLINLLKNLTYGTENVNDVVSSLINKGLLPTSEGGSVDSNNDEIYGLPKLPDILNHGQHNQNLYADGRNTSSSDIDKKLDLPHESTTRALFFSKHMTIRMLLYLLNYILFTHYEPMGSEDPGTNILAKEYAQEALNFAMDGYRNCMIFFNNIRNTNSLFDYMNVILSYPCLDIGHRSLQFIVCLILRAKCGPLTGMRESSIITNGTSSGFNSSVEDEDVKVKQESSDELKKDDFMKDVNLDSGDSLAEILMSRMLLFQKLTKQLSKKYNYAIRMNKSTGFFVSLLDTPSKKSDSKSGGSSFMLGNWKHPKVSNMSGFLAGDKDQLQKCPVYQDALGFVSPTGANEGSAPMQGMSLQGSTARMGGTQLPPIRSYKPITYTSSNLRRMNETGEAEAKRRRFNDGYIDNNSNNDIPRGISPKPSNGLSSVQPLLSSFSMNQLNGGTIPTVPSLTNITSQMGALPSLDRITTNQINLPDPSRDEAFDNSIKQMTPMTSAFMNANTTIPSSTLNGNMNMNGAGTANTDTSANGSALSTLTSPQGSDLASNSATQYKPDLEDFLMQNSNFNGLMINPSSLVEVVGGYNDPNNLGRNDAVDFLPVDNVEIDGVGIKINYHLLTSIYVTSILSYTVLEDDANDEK
row,Sequence,PBM E-score
1,CAGCGGAG,0.245
2,CAACAGCA,-0.0939
3,CAAACGAG,-0.0889
4,ATATTGAA,-0.0564
5,AATCATAG,-0.0307
6,CTAGTGAA,-0.0412
7,CCAGGGAC,-0.185
8,ATGTCTTC,-0.139
9,ACCCAAAC,0.0644
10,ATCCCCAC,0.00986
11,ATTCTTTG,-0.158
12,ATTAAGGA,-0.0105
13,AGCTGCGA,-0.0156
14,GCCATTCA,0.0532
15,GCTGATGA,-0.269
16,ACGAAGCG,-0.317
17,CAGGTCCA,-0.0172
18,CTTGCGCC,-0.0164
19,CACCACTG,-0.311
20,ATCGACGA,0.0392
21,CCGACTAC,0.249
22,AAGAGGCC,0.122
23,AGCGCCCT,0.0634
24,GTTCGTGA,-0.126
25,CAAAGTGG,-0.149

row,Sequence,PBM E-score
1,AGTACGTA,-0.11
2,GGTAGACC,0.122
3,GTGACCGA,0.298
4,GACCGACC,0.266
5,CCAAAGTC,-0.103
6,ATGTGTCC,0.124
7,GGCTGGAA,-0.0106
8,CGTTTTGC,-0.185
9,AACTAAGT,-0.0909
10,CCCTGCAG,-0.0886
11,CCTTCACG,-0.154
12,GGCCAAGA,-0.144
13,CGTGAGAG,-0.158
14,GCATTACA,-0.0591
15,CAAAAACC,0.19
16,GCTGGGGA,-0.176
17,CTCGCACA,-0.0196
18,CTGACAGC,-0.168
19,GGGTTAGA,0.0639
20,CATCAACG,-0.0133
21,ACATCACT,-0.236
22,GATAGGAC,-0.0118
23,TGGTACCA,0.0153
24,ACGACATG,-0.195
25,CAGCAATC,-0.0047

row,Sequence,PBM E-score
1,AAAACCCG,0.4
2,CTATTCAC,0.0922
3,AAGAGTGT,-0.182
4,CAAGAAGA,-0.185
5,AACATGAT,-0.0998
6,CACGAACC,-0.0667
7,AAGCGATC,0.0805
8,TAATCCTA,0.035
9,AAACACAC,-0.0893
10,ACCTACAT,-0.113
11,CGCAAGAG,0.0588
12,GGGGCTAC,0.0486
13,GGATAGAC,-0.113
14,ACGGTACT,0.183
15,AGCACACG,-0.198
16,AAAATAAC,-0.143
17,CACGTGAA,-0.18
18,TATGGAAA,0.0763
19,CGGACATC,0.365
20,CGCCGAAA,0.359
21,CGCGGACC,0.312
22,ATATGGCG,0.0887
23,AGTGGATC,0.133
24,GGTCAAGA,-0.135
25,CAGGGTAA,-0.177

row,Sequence,PBM E-score
1,CAGGATCA,-0.0263
2,CCTACTAG,-0.248
3,AAGTACGT,-0.253
4,CGGGATCA,0.22
5,ATCGCTTG,-0.218
6,AGCCCAAT,-0.252
7,AGGCAATC,-0.0887
8,CCTTTGTA,-0.187
9,CCACTGGG,-0.145
10,ACTTTTCA,-0.288
11,GTCGGCAC,0.065
12,ACGAATGC,-0.225
13,ACGATCAT,-0.223
14,GGTACGAC,0.025
15,CATCCCAA,-0.292
16,CAGACAGA,-0.226
17,GCCGAGAC,0.283
18,CACTCCGC,0.156
19,GCACTCCA,-0.208
20,ACTTTCAG,-0.0767
21,CATATCTC,0.0335
22,CTCGATGC,-0.171
23,GGCTACTA,-0.00226
24,ATTTATTC,0.142
25,GGTACATA,0.18

row,Sequence,PBM E-score
1,GATCGATA,-0.051
2,CCACAGAA,-0.15
3,GAAAACGC,-0.0874
4,ATTGGGTA,-0.211
5,AATCGCAC,-0.23
6,AACACGAT,0.00865
7,ACTTGCCA,-0.229
8,CTCATAGC,-0.292
9,AGGGGGAT,-0.02
10,GAATTTTA,0.111
11,ATGTGAGG,-0.116
12,ACTAGAAC,0.0117
13,AGGGTTCC,0.1
14,CCGGCGAC,0.276
15,ACAATAAC,-0.0359
16,GCAACTCA,-0.0789
17,CTACCCAG,-0.27
18,TAGCCTGA,-0.271
19,CCGCATCC,0.0271
20,ACAAAAGG,0.059
21,CTGAAGCA,-0.353
22,ATTATAGA,-0.0881
23,CACTTAGG,-0.148
24,CGGTTACG,0.244
25,CTCTTCGC,-0.0711

row,Sequence,PBM E-score
1,CAGGGGAG,-0.137
2,GGCCCTTA,0.138
3,ACGTAATA,-0.113
4,ATTCTGCC,0.158
5,CAGAGACC,-0.0501
6,AATAGAAG,-0.108
7,TAGCAGGA,-0.0716
8,AAGTTCTG,-0.13
9,GGGCGAAA,0.216
10,AACCTCGG,0.33
11,GGTTAGAC,0.105
12,CTTAGAAA,-0.207
13,CTGCTCGC,0.106
14,CTGGATAC,-0.176
15,CTCGCCTC,-0.0174
16,CGCGCGGA,0.266
17,GGAATGCA,0.0613
18,AGAGACTG,-0.227
19,AGTTAGAT,-0.278
20,ATCACCGC,0.234
21,ACCGAGCA,0.359
22,ACTCGCCA,-0.217
23,GTTTATCA,0.0548
24,ACGCGTTA,-0.0916
25,ACGAGTTG,-0.199

row,Sequence,PBM E-score
1,CATCAGAA,-0.326
2,GAAACCCC,0.176
3,AGGGCTGC,-0.121
4,GGGTTTGA,0.0488
5,GTGTGTCA,-0.159
6,ATTTCGGA,0.415
7,GGACACGA,0.128
8,CGCTTCCG,0.278
9,AACTAGGC,-0.147
10,AGCAAGAA,-0.0762
11,AGTTCCCG,0.298
12,CAGTCCTA,-0.309
13,CAGCGATG,-0.0731
14,GAGCCAAC,-0.0736
15,GAGTTGAC,-0.0936
16,ACCGGACT,0.408
17,AGCTTAAG,-0.174
18,ATGGCCTG,-0.106
19,AAAGAGCC,-0.12
20,CTTTGCTC,-0.0184
21,TAGCTGAA,-0.158
22,GTCTGCAC,-0.0233
23,CCCCGCTC,0.0426
24,ACGGTCCA,0.125
25,CGATCAAC,-0.0697

row,Sequence,PBM E-score
1,GCTATATA,-0.203
2,TACACTAA,-0.225
3,ACATCACG,-0.152
4,ACCGCCCC,0.236
5,ATGAGATG,-0.18
6,ACAGATGG,-0.182
7,AGGATGAC,-0.263
8,ATGGTCGA,-0.174
9,ACACGTGT,-0.281
10,GGAAGAGA,0.109
11,CCGCCAGC,0.0463
12,GAACGTCA,-0.238
13,CGGTATTA,0.412
14,ATTTCATG,-0.268
15,GATATGGC,0.11
16,CCGGGAGG,0.29
17,CAGAAGGC,-0.0753
18,CGAAATGA,0.208
19,CTGTTGGA,-0.174
20,AGACAGAA,-0.173
21,ATTGAGTA,-0.118
22,GGAGACTA,-0.0255
23,CAGTATCC,-0.0739
24,GAACCGAC,0.124
25,CGGATAAC,0.359

row,Sequence,PBM E-score
1,GGGCGCAC,-0.0191
2,CTCCCTAC,-0.245
3,CGTGGTCA,-0.142
4,AATATTAC,0.0669
5,ACTCTGGC,-0.091
6,ATAAAATG,-0.0472
7,ATATCGCA,0.0581
8,AAGGACCA,-0.199
9,AGCGGGAT,0.136
10,ACCCCCAC,-0.0534
11,TAAGGGGA,-0.0237
12,ATAACAAT,-0.046
13,ATCATCGG,0.361
14,AGAGTCAT,-0.343
15,AGCGTCAA,-0.0521
16,GCGCGTTA,0.122
17,ATTGACGC,-0.123
18,ACTTCGAA,-0.188
19,ATCCGCTC,0.29
